Experimental data reported in patent US20240199692A1 (priority 2019, published 2024).
At least one compound was matched to its structure with a doubt left.

Columns and labels:
Type in all cases: biochemical
human MMP13 = human MMP13 (Homo sapiens, UniProt P45452); assay: Inhibitory effects on human MMP13, enzyme assay; conditions: Test Example 8
Procedure: The human MMP13 activated through the reaction was poured into a 96-well microplate to reach a final concentration of 5 ng/mL. […] Then, MOCAc-[…] was added to reach a final concentration of 6 μmol/L, and enzymatic reaction was initiated.

MMP2 = target: T1, MMP2 (Homo sapiens, UniProt P08253); assay: Inhibitory effects on human MMP2 (Method 1), enzyme assay with MOCAc-Pro-Leu-Gly-Leu-A2pr(Dnp)-Ala-Arg-NH2 substrate, 96-well; conditions: Test Example No. 1-1 (Method 1, 96-well microplate)
T1 sequence (P08253 110-660): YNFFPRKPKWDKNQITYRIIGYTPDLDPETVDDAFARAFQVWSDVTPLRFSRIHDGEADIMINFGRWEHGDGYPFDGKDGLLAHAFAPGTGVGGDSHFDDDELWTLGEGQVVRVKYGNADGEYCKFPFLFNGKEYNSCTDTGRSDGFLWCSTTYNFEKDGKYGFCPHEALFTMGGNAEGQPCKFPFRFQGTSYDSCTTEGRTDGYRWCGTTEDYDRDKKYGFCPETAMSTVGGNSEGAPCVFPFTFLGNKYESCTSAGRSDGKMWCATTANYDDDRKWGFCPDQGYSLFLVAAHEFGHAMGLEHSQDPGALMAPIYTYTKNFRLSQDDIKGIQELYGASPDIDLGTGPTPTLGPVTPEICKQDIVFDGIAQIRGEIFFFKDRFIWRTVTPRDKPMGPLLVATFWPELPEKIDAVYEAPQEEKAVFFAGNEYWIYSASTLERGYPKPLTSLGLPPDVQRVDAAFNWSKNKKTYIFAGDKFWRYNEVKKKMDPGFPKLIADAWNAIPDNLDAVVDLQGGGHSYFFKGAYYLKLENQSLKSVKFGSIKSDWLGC
Procedure: In a reaction solution [50 mmol/L Tris-HCl (pH 7.5), 150 mmol/L NaCl, 10 mmol/L CaCl2, 0.05% Brij L23], 100 μg/mL human recombinant MMP2 enzyme and 1 mmol/L 4-Aminophenylmercuric acetate were mixed together, and reacted at 37° C. for 60 minutes. The human MMP2 activated through the reaction was poured into a 96-well microplate to reach a final concentration of 0.7 or 7 ng/mL.

human MMP12 = human MMP12 (Homo sapiens, UniProt P39900); assay: Inhibitory effects on human MMP12, enzyme assay; conditions: Test Example 7
Chain of human MMP12 (P39900 106-470): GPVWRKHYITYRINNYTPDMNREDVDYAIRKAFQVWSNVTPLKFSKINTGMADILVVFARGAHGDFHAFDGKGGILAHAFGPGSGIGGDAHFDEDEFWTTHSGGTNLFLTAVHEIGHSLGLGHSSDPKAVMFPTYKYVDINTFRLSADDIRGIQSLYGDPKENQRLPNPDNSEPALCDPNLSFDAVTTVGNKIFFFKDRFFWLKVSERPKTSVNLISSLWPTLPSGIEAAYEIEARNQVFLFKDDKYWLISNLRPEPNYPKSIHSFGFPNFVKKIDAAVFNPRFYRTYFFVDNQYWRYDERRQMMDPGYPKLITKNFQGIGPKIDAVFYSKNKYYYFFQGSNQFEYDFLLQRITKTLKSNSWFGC

CC(C)C[C@H](NC(=O)[C@@H]1C[C@H](N)CN1C(=O)CC[C@@H](NS(=O)(=O)c1ccc(NC(=O)c2ccc(C(N)=O)cc2)cc1)C(=O)O)C(=O)N(C)[C@@H](CCC(=O)O)C(=O)N1CCC[C@H]1CC(N)=O [Compound 20]
IC50 (human MMP13): 0.224 µM
IC50 (MMP2): 0.0002 µM
IC50 (human MMP12): 0.254 µM
